Assay results as given in patent publication US5786349A, “Method for treating chlamydia infectious diseases by rifamycin derivative” (Kaneka Corporation, priority 1995, dated 1998).

Key:
[1] = tested on: Chlamydia trachomatis F/UW-6/Cx; experiment: In vitro test 1: inhibition of inclusion formation in HeLa 229 cells (Japan Society of Chemotherapy standard method), C. trachomatis F/UW-6/Cx; conditions: 72 h, read-out: minimum inhibitory concentration (MIC) capable of inhibiting inclusion formation
[2] = tested on: Chlamydia trachomatis D/UW-3/Cx; experiment: In vitro test 1: inhibition of inclusion formation in HeLa 229 cells (Japan Society of Chemotherapy standard method), C. trachomatis D/UW-3/Cx; conditions: 72 h, read-out: minimum inhibitory concentration (MIC) capable of inhibiting inclusion formation

Compound: COC1C=COC2(C)Oc3c(C)c(O)c4c(=O)c(c5oc6cc(N7CCN(CC(C)C)CC7)cc(O)c6nc-5c4c3C2=O)NC(=O)C(C)=CC=CC(C)C(O)C(C)C(O)C(C)C(OC(C)=O)C1C (stereo not shown) [Compound 4]
- MIC [1]: 0.125 ng/mL (≈ 0.133 nM)
- MIC [2]: 0.125 ng/mL (≈ 0.133 nM)

Compound: CO[C@H]1/C=C/O[C@@]2(C)Oc3c(C)c(O)c4c(O)c(c(/C=N/N5CCN(C)CC5)c(O)c4c3C2=O)NC(=O)/C(C)=C\C=C\[C@H](C)[C@H](O)[C@@H](C)[C@@H](O)[C@@H](C)[C@H](OC(C)=O)[C@@H]1C [rifampicin]
- MIC [1]: 4 ng/mL (≈ 4.86 nM)
- MIC [2]: 4 ng/mL (≈ 4.86 nM)

Converted amounts (≈) assume the structure as drawn.
